Assay results reported in the supplement of paper PMC4604168 (melanoma cell lines).
Some of the results follow. Repeats are few or missing, and single values can be far off.
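Further: cell number obtained by counting DAPI-stained nuclei in high-throughput microscope images with image analysis software, screen run in 1,536-well plates.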

What follows are compounds tested on IPC-298 (assay: cell count relative to DMSO control; melanoma cells; higher = more viable cells). Conditions: library dose: low library concentration; 72 h.
Compound `C=C(c1ccc(C(=O)O)cc1)c1cc2c(cc1C)C(C)(C)CCC2(C)C` [Bexarotene] + Cn1cc(/C=C2\C(=O)Nc3cccnc32)c2ccccc21 [GW441756] (first compound 2 µM, partner dose 0.4 µM) has a cell count of 96.9%. Compound `NC1(c2ccc(-c3nc4ccn5c(=O)[nH]nc5c4cc3-c3ccccc3)cc2)CCC1` + CC(C)CCN1c2nc(Nc3cc(F)c(O)c(F)c3)ncc2N(C)C(=O)C1C [BID1870] (first compound 0.4 µM, partner dose 0.2 µM) has a cell count of 92.5%. `CS(=O)(=O)c1ccc(C(=O)Nc2ccc(Cl)c(-c3ccccn3)c2)c(Cl)c1` [vismodegib] + N#Cc1c(O)c2c(-c3ccc(-c4ccccc4O)cc3)csc2[nH]c1=O [A769662] (first compound 1 µM, partner dose 2 µM) was tested, and the cell count was 103%. For `CN(c1ncccc1CNc1nc(Nc2ccc3c(c2)CC(=O)N3)ncc1C(F)(F)F)S(C)(=O)=O` + COC(=O)c1sccc1S(=O)(=O)Nc1ccc(Nc2ccccc2)cc1OC [GSK0660] (first compound 0.08 µM, partner dose 1 µM), the cell count was 96.6%. In the case of `CCCS(=O)(=O)Nc1ccc(F)c(C(=O)c2c[nH]c3ncc(Cl)cc23)c1F` + COC(=O)c1sccc1S(=O)(=O)Nc1ccc(Nc2ccccc2)cc1OC [GSK0660] (first compound 0.08 µM, partner dose 1 µM), the cell count is reported as 88%. Compound `NC1(c2ccc(-c3nc4ccn5c(=O)[nH]nc5c4cc3-c3ccccc3)cc2)CCC1` + COc1cc(N2CCC(N3CCN(C)CC3)CC2)ccc1Nc1ncc(Cl)c(Nc2ccccc2S(=O)(=O)C(C)C)n1 [NVP-TAE684] (first compound 0.4 µM, partner dose 0.08 µM) has a cell count of 99.1%. `CS(=O)(=O)c1ccc(C(=O)Nc2ccc(Cl)c(-c3ccccn3)c2)c(Cl)c1` [vismodegib] + CCN(CC)CCCCNc1ncc2cc(-c3cc(OC)cc(OC)c3)c(NC(=O)NC(C)(C)C)nc2n1 [PD173074] (first compound 1 µM, partner dose 0.1 µM) showed a cell count of 99%. Work on `CCCS(=O)(=O)Nc1ccc(F)c(C(=O)c2c[nH]c3ncc(Cl)cc23)c1F` + N#Cc1c(O)c2c(-c3ccc(-c4ccccc4O)cc3)csc2[nH]c1=O [A769662] (first compound 0.08 µM, partner dose 2 µM) yielded a cell count of 93%. Work on `CCCS(=O)(=O)Nc1ccc(F)c(C(=O)c2c[nH]c3ncc(Cl)cc23)c1F` + COc1ccc2c(c1)CCC1C2CCC2(C)C(NCCCCCCN3C(=O)C=CC3=O)CCC12 [U73122] (first compound 0.08 µM, partner dose 0.4 µM) yielded a cell count of 96.7%. In the case of `CN(c1ncccc1CNc1nc(Nc2ccc3c(c2)CC(=O)N3)ncc1C(F)(F)F)S(C)(=O)=O` + O=S(=O)(c1ccccc1)N(CC(F)(F)F)c1ccc(C(O)(C(F)(F)F)C(F)(F)F)cc1 [T0901317] (first compound 0.08 µM, partner dose 1.4 µM), the cell count is reported as 88.9%. Work on `CCCS(=O)(=O)Nc1ccc(F)c(C(=O)c2c[nH]c3ncc(Cl)cc23)c1F` + O=C1NC(=O)/C(=C/c2ccc(-c3ccc(F)cc3O)o2)S1 [AS252424] (first compound 0.08 µM, partner dose 1 µM) yielded a cell count of 92.6%. `NC1(c2ccc(-c3nc4ccn5c(=O)[nH]nc5c4cc3-c3ccccc3)cc2)CCC1` + COc1cc2ncnc(Nc3ccc(Oc4ccccc4)cc3)c2cc1OC [SrcI1] (first compound 0.4 µM, partner dose 2 µM) gave a cell count of 104%. `C=C(c1ccc(C(=O)O)cc1)c1cc2c(cc1C)C(C)(C)CCC2(C)C` [Bexarotene] + COc1cc2ncnc(Nc3ccc(Oc4ccccc4)cc3)c2cc1OC [SrcI1] (first compound 2 µM, partner dose 2 µM) showed a cell count of 89.5%. Work on `C=C(c1ccc(C(=O)O)cc1)c1cc2c(cc1C)C(C)(C)CCC2(C)C` [Bexarotene] + O=S(=O)(c1ccccc1)N(CC(F)(F)F)c1ccc(C(O)(C(F)(F)F)C(F)(F)F)cc1 [T0901317] (first compound 2 µM, partner dose 1.4 µM) yielded a cell count of 82.5%. `C=C(c1ccc(C(=O)O)cc1)c1cc2c(cc1C)C(C)(C)CCC2(C)C` [Bexarotene] + Oc1cc(-c2nc(-c3ccccc3)[nH]c2-c2ccncc2)ccc1Cl [L779450] (first compound 2 µM, partner dose 0.2 µM) showed a cell count of 88.4%.
